Some of the results follow.
These sequences were tested on T1, Caupolican (Caup) homeodomain DNA-binding domain (assay: PBM E-score (8-mer, recovered from the published 9-mer minima) (E-score (dimensionless, -0.5 to 0.5)); Drosophila protein; higher = stronger relative binding preference, active = 0.31 or more).
T1 sequence: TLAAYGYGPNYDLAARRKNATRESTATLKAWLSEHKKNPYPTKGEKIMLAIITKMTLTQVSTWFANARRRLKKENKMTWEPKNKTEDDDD
In short: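 An enrichment score, with higher meaning stronger, expresses relative binding preference for each short DNA word. The protein used was Caup's homeodomain DNA-binding domain (residues 214-303), produced by in vitro transcription and translation and tested at 100 nM on custom-designed protein binding microarrays. The 8-mer values were recovered from published 9-mer scores, each equal to the lower of its two constituent 8-mer scores.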

Sequence	PBM E-score
GAAATTGC	inactive: 0.0246
GGTTACAC	inactive: 0.181
CATATCGC	inactive: 0.0493
GGGGGAAC	inactive: -0.21
ACCTGCAC	inactive: -0.0605
GCCAATCA	inactive: -0.0321
GAGGCAGC	inactive: -0.186
GAGTTGGA	inactive: -0.0666
GACATCCA	inactive: 0.159
GTAGGTCA	inactive: -0.00049
CGGTGGTA	inactive: 0.00903
ACACTCGC	inactive: -0.0592
ACAGAGAC	inactive: 0.096
CGCTAAGC	inactive: -0.0779
AGTCATTA	inactive: 0.0618
AGGACTGA	inactive: 0.0183
CGATAAAG	inactive: 0.00965
CTCCGTAC	inactive: -0.0596
AGTCATGA	inactive: 0.127
GCGACTTA	inactive: -0.0816
ACACGCTA	inactive: 0.282
AATAATAC	inactive: 0.267
CCTGTCTC	inactive: -0.00577
AAGTGCAC	inactive: 0.0771

Sequence	PBM E-score
ACGCCGGG	inactive: -0.228
AGATCATG	inactive: 0.0783
ACCCAGCT	≥ -0.0926
AGGTCACC	inactive: -0.159
GACGTAGA	inactive: -0.0704
CAATGTAG	inactive: 0.182
AGCCAGAG	inactive: -0.124
AGGGCATA	inactive: -0.0425
CGTGTTAC	inactive: 0.282
GTGTACAC	active: 0.389
TACAGGCA	inactive: 0.161
ACCGGGGG	inactive: -0.303
GTCCTAAA	inactive: 0.0383
ACGTCGCC	inactive: -0.156
ATTAAATC	inactive: 0.091
ATTGATTA	≥ 0.2
GTATAATA	inactive: 0.175
GTGAGTAA	inactive: 0.0432
CGTTTTAC	inactive: 0.0444
AGTAGGGC	inactive: -0.0887
CCACCAGG	inactive: -0.225
ACCCTTTG	inactive: -0.118
TAGTTCGA	inactive: 0.0752
CTATAAAC	inactive: 0.158

Sequence	PBM E-score
CTACGCCC	inactive: -0.212
AACGGGAT	inactive: -0.0592
CTTAGGGC	inactive: -0.143
TCCAACGA	≥ 0.0483
ACCGAAAC	inactive: -0.0317
CTAGATTA	inactive: 0.145
CAGTACGA	inactive: 0.101
ATGGTAGG	inactive: -0.0515
GCGCGAAC	inactive: -0.0671
AGTGGTAG	inactive: 0.0358
CAAAGTCG	inactive: -0.0445
ATTGTGCC	inactive: -0.0794
ATGAGTTA	inactive: 0.04
AAATTTCC	inactive: 0.00428
AGTAGGAT	inactive: 0.0263
AGCTGCAT	inactive: -0.0587
CACCTACG	inactive: -0.128
ATACTAGA	inactive: 0.213
AACGACTG	inactive: 0.0234
CGCGGGTA	inactive: -0.00391
GTTCCATA	inactive: 0.0906
CAGCAAGG	inactive: -0.0187
GAGGAAGA	inactive: -0.0993
ACAAATGT	active: ≥ 0.311

Sequence	PBM E-score
AGGGATGA	inactive: -0.0456
CAGTGGCA	inactive: -0.12
CAGAATTA	inactive: 0.0504
ACATCTGA	inactive: 0.183
ATATCAAT	inactive: 0.127
GCGATACA	inactive: 0.217
ATGGCCCC	inactive: -0.175
CGAAGTAA	inactive: -0.00995
CTAGATAA	inactive: 0.0488
ATCCTCTG	inactive: -0.0182
AATTGCAT	inactive: 0.0474
CCGCGCTA	inactive: -0.145
ATACGGCA	inactive: 0.0372
AACACTAG	inactive: 0.17
ACGTGTAT	active: 0.353
CTAACGAC	inactive: 0.0213
GGTTTAGA	inactive: 0.00471
AAGATCCG	inactive: -0.128
ACTGTGCC	inactive: -0.121
CCCTGAGA	inactive: -0.156
CCAACGTA	inactive: 0.0596
ATCCATGC	inactive: -0.0207
GGACAACC	inactive: 0.169
CGAGGCCC	inactive: -0.232

Sequence	PBM E-score
AACCTCCG	inactive: -0.143
TGAAACAA	inactive: 0.188
TACGCAGA	inactive: 0.0132
ATCTGGGG	inactive: -0.182
TAGTATAA	inactive: 0.167
AAAGCCCT	inactive: -0.0941
GCGTCCCA	inactive: -0.2
CGTAAGAC	inactive: -0.0308
GTGTACCA	inactive: 0.308
CCAGGACC	inactive: -0.169
CTCGCGTA	inactive: -0.0439
GATGTGGC	inactive: -0.0679
GAGCGGAC	inactive: -0.217
TATATCGA	inactive: 0.0973
ATTCACTA	inactive: 0.0725
TGCACCCA	inactive: -0.046
CAACGTGG	inactive: -0.0105
CCAACCCC	inactive: -0.162
ACCATTAC	inactive: 0.108
AGGTAGAC	inactive: 0.0513
ATAGGGTC	inactive: -0.00095
GACTTCTC	inactive: -0.0701
CATTGTCA	inactive: 0.207
CGAAAGCA	inactive: 0.0429

Sequence	PBM E-score
ACTGAGCC	inactive: -0.118
GATAGCAA	inactive: 0.121
AGGACAAT	inactive: 0.0918
ACACAGAG	inactive: 0.129
CCGTTATA	inactive: 0.016
AAAAACGG	inactive: -0.0275
CCAATTAA	inactive: 0.121
AGTGTTAA	inactive: 0.165
ACTAACAG	inactive: 0.174
AACTCCGA	inactive: -0.058
GAGTCAGA	inactive: -0.0516
CTGTAGAA	inactive: 0.13
AGAGGAAA	inactive: -0.0315
AATCTCTG	inactive: 0.0615
CCGGCTGC	inactive: -0.162
CAATAAAA	inactive: 0.142
AAAAGGCC	inactive: -0.193
AGAGAGAA	inactive: -0.0245
CTGATGGA	inactive: -0.0825
ACGCCTTG	inactive: -0.0368
AGTCTGAA	inactive: 0.0498
ACTCAGAC	inactive: 0.029
